Assay results from PubChem BioAssay AID1347073 (National Center for Advancing Translational Sciences (NCATS), 2019).
Among all 45,000 compounds or so, about 200 (0.44%) were called active. Another 7% or so got no clear call; they are omitted. Calls follow the shape of the dose curve; as a rule, active = well fitted activation curve with a large enough effect; inconclusive = small, poorly fitted or top-dose-only effect; inactive = no such curve, though single readings can be large or run the other way. This is one part of the list.

Experiment: qHTS of TDP-43 Inhibitors: NCGC Sytravon Library Screen; also: 0% is about no effect; nearly all actives have a fitted effect of over 55% in size
Conditions: yeast TDP-43 toxicity rescue, BacTiter-Glo growth, 24 h; series mostly up to 46.1 µM; growth rescue (activation): at the top concentration
Method in brief: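 TDP-43-expressing yeast, pregrown in raffinose, seeded at OD600 0.02 in galactose medium with compound for 24 hr at 30 deg C. Growth read by BacTiter-Glo luminescence, so rescue of toxicity appears as activation.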

| Compound | growth rescue (activation) |
| --- | --- |
| CCOCCc1nnc(NC(=O)CS(=O)(=O)c2ccc(C)cc2)s1 | inactive: 0.521% |
| O=C(CCN=C1NS(=O)(=O)c2ccccc21)NCc1ccccc1F | inactive: 10.2% |
| COC(=O)c1cc2oc3ccccc3c2n1Cc1ccc(C)cc1 | inactive: 15.8% |
| COc1ccnc(N=CNOCc2ccc(Cl)cc2)c1C#N | inactive: 26.1% |
| COc1ccc(OC)c(CNCc2ccc3c(c2)OCO3)c1 | inactive: -2.71% |
| O=C(Nc1nnc(-c2ccccc2)s1)c1ccccc1O | inactive: -0.541% |
| O=S1(=O)c2ccccc2Nc2ccccc21 | inactive: 6.33% |
| Cc1ccc(CSc2nnc(SCC(=O)N/N=C/c3c(C)nn(-c4ccccc4)c3C)s2)cc1 | inactive: -12.5% |
| Cc1cc(N2CCOCC2)nc2ccc(NC(=O)CCC(=O)N3CCN(c4ccccc4)CC3)cc12 | inactive: 10.5% |
| CC[n+]1c(/C=C/C=C/N(C(C)=O)c2ccccc2)sc2ccccc21 | inactive: -3.78% |
| CC(=O)Nc1cccc(NC(=O)c2ccc(Br)cc2)c1 | inactive: 3.31% |
| COc1ccc(OC)c(S(=O)(=O)Nc2ccc3c(c2)n(C)c(=O)n3C)c1 | inactive: 1.78% |
| CCOC(=O)c1c(C)oc2ccc(N(C(=O)c3ccncc3)S(=O)(=O)c3ccc(CC)cc3)cc12 | inactive: 6.83% |
| CC(C)CCN1CCN(Cc2ccc(Oc3ncccn3)cc2)CC1CCO (centres undefined) | inactive: 4.88% |
| CC1(c2ccccc2)NC(=O)N(CC(=O)Nc2cc(S(=O)(=O)N3CCOCC3)ccc2Cl)C1=O (centres undefined) | inactive: 14.3% |
| CC(C)C1Nc2ccc(S(=O)(=O)N3CCOCC3)cc2NC1=O (centres undefined) | inactive: 6.18% |
| O=C(NCc1ccncc1)C1CCN(C(=O)c2cccc(Cl)c2)CC1 | inactive: 3.04% |
| COc1cc(OC)c(C(=O)OCN2C(=O)c3ccccc3C2=O)cc1OC | inactive: 35.5% |
| CN(C)[C@@H]1CCC[C@@H]1OC(=O)C(c1ccccc1)c1ccccc1 | inactive: -1.7% |
| Cc1ccc(S(=O)(=O)Nc2cccc(C(=O)N3CCOCC3)c2)cc1 | inactive: 4.91% |
| COc1cc(/C=C(/C(=O)O)c2ccc(-c3ccccc3)cc2)cc(OC)c1OC | inactive: 20.7% |
| S=c1[nH]c2cc(Cl)c3cccnc3c2o1 | inactive: 9.34% |
| CCCCOCC1CC(CC#CCN2CCCCC2)C(=O)O1 (centres undefined) | inactive: 1.1% |

| Compound | growth rescue (activation) |
| --- | --- |
| Nc1c(N2CCCC2)c2ccccc2oc1=O | inactive: 0.355% |
| CC(OC(=O)c1c(F)cccc1F)C(=O)NCCC1=CCCCC1 (centres undefined) | inactive: 9.01% |
| Cc1cc(-c2csc(N)n2)c(C)n1Cc1ccco1 | inactive: -2.88% |
| COc1ccc(NC(=O)c2ccc(-c3c(C)noc3C)c3ccoc23)cn1 | inactive: 21.2% |
| COc1cccc(Nc2nc(C(N)CC(C)C)cs2)n1 (centres undefined) | inactive: -2.68% |
| Cc1ccc(NS(=O)(=O)c2ccc3[nH]c(=O)c(=O)[nH]c3c2)cc1Cl | inactive: 2.58% |
| COc1ccc(CCNC(=O)COC(=O)c2cc(=O)[nH]c3ccccc23)cc1 | inactive: 12.3% |
| COc1ccc(CN=C(NS(=O)(=O)c2cccs2)SC)cc1 | inactive: 31% |
| COc1cc(C(=O)Nc2cc(-c3nc4cc(C)ccc4o3)ccc2C)cc(OC)c1OC | inactive: 20.9% |
| CCN(CC)CCN(C(=O)Cn1nnc(-c2ccc(C)o2)n1)C(C(=O)NC(C)(C)C)c1cccs1 (centres undefined) | inactive: 5.7% |
| CC1(C)CC(=O)C(c2c[nH]c3ccccc23)C(=O)C1 | inactive: 9.77% |
| Nc1c(-c2nc(-c3ccncc3)no2)nnn1CC(=O)Nc1ccccc1 | inactive: 8.09% |
| COc1cc(NS(=O)(=O)c2cc(C(=O)N3CCN(C(C)=O)CC3)ccc2OC)cc(OC)c1 | inactive: 8.49% |
| FC(F)(F)c1cc(-c2ccccc2)nc2nc(N3CCOCC3)sc12 | inactive: 3.25% |
| O=C(CCN1CCCCC1)N/N=C/c1c[nH]c2ccccc12 | inactive: 13.8% |
| COc1ccccc1/C=C/C=N/NC(=O)c1ccco1 | inactive: 12.7% |
| Cc1ccc(CN2CCSc3ccc(C(=O)NCc4ccco4)cc32)cc1 | inactive: 8.18% |
| CCOC(=O)/C=C/C(=O)Nc1cc(S(=O)(=O)Nc2ccc(OC)cc2)ccc1N1CCOCC1 | inactive: 29% |
| Cn1c(SCC(=O)Nc2ccc3nc(SCC(=O)NC4CC4)sc3c2)nnc1-c1ccccc1 | inactive: 22.5% |
| O=C(N/N=C/c1ccc(OCC(=O)N2CCCCC2)cc1)c1ccccc1O | inactive: 5.29% |
| COc1ccc(/C=C/C(=O)NCCOc2ccc(C)cc2)cc1 | inactive: 40.2% |
| CCc1ccc(NCc2cccn2-c2nnc(N3CCCCCC3)s2)cc1 | inactive: -5.33% |
| Cc1cccc(OCC(O)CN2CCN(CCN3C(=O)c4cccc5cccc(c45)C3=O)CC2)c1C (centres undefined) | inactive: -4.59% |

| Compound | growth rescue (activation) |
| --- | --- |
| COc1ccc(C(=O)NC(=S)N2CC(C)OC(C)C2)cc1OC (centres undefined) | inactive: 4.3% |
| O=C(COC(=O)c1ccc(F)c(S(=O)(=O)N2CCOCC2)c1)c1ccc(Br)cc1 | inactive: 21.5% |
| CC1=C(C(=O)OCC2CCCO2)C(c2ccc(C)o2)C2=C(CC(c3ccc(F)cc3)CC2=O)N1 (centres undefined) | inactive: 22.1% |
| COc1ccc(C(CNC(=O)Cc2cccs2)N(C)C)cc1 (centres undefined) | inactive: 4.93% |
| O=C(c1ccco1)N1CCc2ccccc21 | inactive: 17.3% |
| Cc1ccccc1NC(=O)CSc1nc2[nH]c(=O)cc(O)c2s1 | inactive: 11.3% |
| COc1ccc(N/C=C/C(=C(C#N)C#N)N(C)C)cc1 | inactive: -6.98% |
| O=C1c2cc(F)ccc2-n2c1nc1ccccc1c2=O | inactive: 7.63% |
| Cc1ccc(C)c(CN2C(=O)c3ccccc3S(=O)(=O)c3ccc(C(=O)N4CCN(c5ccccn5)CC4)cc32)c1 | inactive: 8.11% |
| CC(=O)Nc1ccc(NC(=O)C(C)OC(=O)[C@@H]2CCCN2C(=O)c2cccs2)cc1 (some centres undefined) | inactive: 7.04% |
| COC(=O)c1ccccc1NC(=S)N(Cc1ccc2c(c1)OCO2)Cc1cc2cc(C)ccc2[nH]c1=O | inactive: 18.4% |
| CCCC(=O)Nc1ccc(C(=O)NCc2ccccn2)cc1 | inactive: 2.02% |
| N=c1c2c3c(sc2ncn1N)CCCC3 | inactive: 17% |
| O=C(COc1ccccc1)NC(=S)Nc1cccc(NC(=O)c2ccccc2Cl)c1 | inactive: -5.01% |
| COC(=O)c1c(NC(=O)c2ccccc2F)sc(C(=O)N2CCOCC2)c1C | inactive: 6.8% |
| COc1cc(/C=C/C(=O)NC(C)CCc2ccccc2)cc(OC)c1OC (centres undefined) | inactive: -23.3% |
| O=[N+]([O-])c1ccc2c(c1)nc1n2CCCCC1 | inactive: 12% |
| CC1(C(=O)NS(=O)(=O)c2ccccc2)CCN1C(=O)COc1ccc(Cl)cc1 (centres undefined) | inactive: 0.665% |
| CCc1cc(C(=O)N2CCCC(CCC(=O)NCc3cccc(OC)c3)C2)no1 (centres undefined) | inactive: 5.33% |
| N#CCC(=O)N/N=C/c1cccc(Oc2ccccc2)c1 | inactive: 14.7% |
| CCn1ccnc1CN(C)Cc1nc(CCC(C)C)no1 | inactive: 8.55% |
| Cc1cccc(NC(=O)CCCCCN2C(=O)c3ccccc3C2=O)n1 | inactive: 8.96% |
| COc1ccc(NC(=O)C2C3CCC(O3)C2C(=O)O)c(C)c1 (centres undefined) | inactive: -1.39% |
